Consider one molecule from patent US20080280833A1 (published 2008).

This test concerns the target T1, purified human αvβ3 integrin (Chemicon) (human, UniProt P06756 31-1048; P05106 27-788).
T1 construct: also called integrin αvβ3; recombinant αvβ3
As to the kind of experiment: cell-free pull-down: 125I-suPAR + purified αvβ3 with or without uPA (4 µg), immunoprecipitation with LM609, densitometry.

T1 sequence (P06756 31-1048, form in doubt, chain 1 of 2): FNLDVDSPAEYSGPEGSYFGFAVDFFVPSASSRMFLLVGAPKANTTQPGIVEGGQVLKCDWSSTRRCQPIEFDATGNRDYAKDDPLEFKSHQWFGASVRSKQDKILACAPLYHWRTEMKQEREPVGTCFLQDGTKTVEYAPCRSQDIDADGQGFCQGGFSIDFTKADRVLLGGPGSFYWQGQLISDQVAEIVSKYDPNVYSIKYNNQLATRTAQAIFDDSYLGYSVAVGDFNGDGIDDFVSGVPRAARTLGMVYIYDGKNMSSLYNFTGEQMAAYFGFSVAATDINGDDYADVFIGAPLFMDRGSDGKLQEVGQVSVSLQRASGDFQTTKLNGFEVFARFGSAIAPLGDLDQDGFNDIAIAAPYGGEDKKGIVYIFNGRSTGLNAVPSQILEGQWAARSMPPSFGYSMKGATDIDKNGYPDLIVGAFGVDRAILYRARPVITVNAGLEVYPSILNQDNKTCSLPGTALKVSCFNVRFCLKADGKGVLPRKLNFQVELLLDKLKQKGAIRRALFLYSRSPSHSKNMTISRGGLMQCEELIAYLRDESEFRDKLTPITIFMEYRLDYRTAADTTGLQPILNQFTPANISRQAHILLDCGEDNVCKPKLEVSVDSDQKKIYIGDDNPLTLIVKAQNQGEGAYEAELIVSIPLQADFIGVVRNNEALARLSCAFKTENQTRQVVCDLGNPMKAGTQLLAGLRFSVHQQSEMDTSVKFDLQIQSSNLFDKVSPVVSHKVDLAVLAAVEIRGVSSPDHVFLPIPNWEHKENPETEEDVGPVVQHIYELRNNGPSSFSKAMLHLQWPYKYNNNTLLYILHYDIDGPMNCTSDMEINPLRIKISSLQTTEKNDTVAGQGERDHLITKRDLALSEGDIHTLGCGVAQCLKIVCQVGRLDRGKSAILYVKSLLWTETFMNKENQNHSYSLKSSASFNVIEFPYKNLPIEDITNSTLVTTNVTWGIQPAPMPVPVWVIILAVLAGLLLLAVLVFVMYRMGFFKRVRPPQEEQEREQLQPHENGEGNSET
T1 sequence (P05106 27-788, form in doubt, chain 2 of 2, further chain): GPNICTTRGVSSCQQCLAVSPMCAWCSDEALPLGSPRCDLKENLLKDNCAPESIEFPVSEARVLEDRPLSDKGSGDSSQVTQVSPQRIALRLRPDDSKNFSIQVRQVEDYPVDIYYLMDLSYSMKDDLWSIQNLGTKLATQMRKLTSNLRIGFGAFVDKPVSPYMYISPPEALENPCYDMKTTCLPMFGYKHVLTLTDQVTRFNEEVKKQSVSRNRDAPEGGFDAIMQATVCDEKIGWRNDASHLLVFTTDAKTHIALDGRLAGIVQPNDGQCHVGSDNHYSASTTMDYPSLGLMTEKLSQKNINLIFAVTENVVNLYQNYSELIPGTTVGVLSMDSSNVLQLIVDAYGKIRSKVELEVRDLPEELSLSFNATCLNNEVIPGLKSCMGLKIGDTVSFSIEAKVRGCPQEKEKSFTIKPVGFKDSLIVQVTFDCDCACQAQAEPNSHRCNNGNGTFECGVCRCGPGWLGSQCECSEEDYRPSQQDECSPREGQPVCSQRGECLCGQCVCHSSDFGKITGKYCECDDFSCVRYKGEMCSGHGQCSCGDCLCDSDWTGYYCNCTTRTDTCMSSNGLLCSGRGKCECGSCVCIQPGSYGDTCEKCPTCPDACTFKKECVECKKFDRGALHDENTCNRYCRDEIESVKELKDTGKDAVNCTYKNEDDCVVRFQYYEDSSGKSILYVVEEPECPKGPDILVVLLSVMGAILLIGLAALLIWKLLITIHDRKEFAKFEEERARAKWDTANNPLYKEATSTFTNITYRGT

B1: soluble human uPAR (suPAR) (receptor)
chain: not shown
modifications: radioiodinated (125I)
notes: the whole natural entry is named; also called 125I-suPAR; 125I-soluble uPAR
On to B1, for which the “fold increase in coimmunoprecipitated suPAR on addition of uPA” value is approximately 10 fold.
